Test results taken from US20210107981A1 (SUTRO BIOPHARMA, published 2021).

T1: murine PD-1 (R&D Systems Inc., Catalog No. 1021-PD-100) (murine, UniProt Q02242 25-167)
T1 construct: also called mouse PD-1
T1 sequence: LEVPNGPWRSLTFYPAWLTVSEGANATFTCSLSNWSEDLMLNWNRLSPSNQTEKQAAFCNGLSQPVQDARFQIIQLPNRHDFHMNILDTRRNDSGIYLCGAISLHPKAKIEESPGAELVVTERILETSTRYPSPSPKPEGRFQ


How the values were obtained:
[1] = target: T1, murine PD-1 (R&D Systems Inc., Catalog …); experiment: SPR (Biacore), murine PD-1 as analyte
[2] = target: T2, Human PD-1 (ACROBiosystems, Inc., Catalog No. PD1-H5221) (human, UniProt Q15116 partial chain); experiment: SPR (Biacore), antibody captured on anti-FLAG, PD-1 as analyte
T2 construct: Bought recombinant protein; also called huPD1-His; PD-1-his; not shown: His tag of the bought protein (huPD1-His)
Description: Monoclonal anti-FLAG M2 IgG (Sigma-Aldrich #F9291) was immobilized onto a CMS chip (GE Life Sciences) using amine coupling chemistry (from Amine Coupling Kit, GE Life Sciences). The immobilization steps were carried out at a flow rate of 25 μl/min in 1×HBS-EP+ buffer (GE Life Sciences; 10× Stock diluted before use). The sensor surfaces were activated for 7 min with a mixture of NHS (0.05 M) and EDC (0.2 M). The Anti-FLAG M2 IgG was injected over all 4 flow cells at a concentration of 25 μg/ml in 10 mM sodium acetate, pH 4.5, for 7 min. Ethanolamine (1 M, pH 8.5) was injected for 7 min to block any remaining activated groups.
Off-rate and kinetic binding experiments were performed at 25° C. using 1×HBS-EP+ buffer. Test and control antibodies were injected over the Anti-FLAG surface at concentrations of 5-10 μg/mL for 12 seconds at a flow rate of 10 μl/min on flow cells 2, 3 and 4, followed by a buffer wash for 30 seconds at the same flow rate. Kinetic characterization of antibody samples was carried out with a single concentration of antigen (for off-rate ranking) or a 1:2 dilution series of antigen (for kinetic characterization) and 1 injection of 0 nM antigen (i.e., buffer alone). After capturing ligand (anti-PD-1 antibody) on the anti-FLAG surface, the analyte (huPD1-His) was bound at 50, 25, 12.5, 6.25 and 0 nM for 180 seconds, followed by a 600 second dissociation phase at a flow rate of 50 μl/min. Between each ligand capture and analyte binding cycle, regeneration was carried out using 2 injections of 10 mM glycine pH 2.0 for 30 seconds at 30 μL/min, followed by a 30 second buffer wash step.
The data was fit with the Biacore T200 Evaluation software, using a 1:1 Langmuir binding model. KD (affinity, nM) was determined as a ratio of the kinetic rate constants calculated from the fits of the association and dissociation phases.

[3] = target: T3, human PD-1 expressed on the cell surface (CHO-PD1 cells) (human, UniProt Q15116 25-288); experiment: FACS cell binding on CHO cells expressing human PD-1
T3 construct: Also used here as the target for native PD-1 on human PBMC / T cells in the functional (IFN-g) assays; also called CHO cell line overexpressing human PD-1; Cell-Surface Human PD-1 antigen
Description: Antibodies with expression levels >250 nM and mouse IgGs from hybridomas were tested in a fluorescence-activated cell sorting (FACS) cell-binding assay. Chinese Hamster Ovary (or CHO) Cells stably expressing the human target molecule PD-1 on the cell surface (CHO-PD1) were used to screen for binding. Parental CHO cells were used as a negative control to determine background-binding levels. Parental CHO cells and CHO-PD1 cells were cultured in RPMI w/10% FCS penicillin/streptomycin (Pen/Strep) and glutamine (or Gln) and split every 3-4 days at 10⁵ cells/mL.
A mix of parental CHO cells and CHO-PD1 cells was prepared as follows: Parental CHO cells were washed 2× in PBS then incubated in PBS containing 1 μM CellTrace™ Oregon Green488® (Life Technologies) at 37° C. for 30 minutes. Cells were then washed 2× with RPMI w/10% fetal calf serum (FCS), washed 2× with FACS buffer (PBS w/2% FCS), suspended thoroughly in ice-cold FACS buffer at a final concentration of 2×10⁶ cells/mL and kept on ice. CHO-PD1 cells were similarly washed with FACS buffer and kept on ice at 2×10⁶ cells/mL. Parental CHO cells and CHO-PD1 cells were then mixed to obtain a 1:1 cell suspension and seeded at 100 μL per well on 96 well polypropylene plates. Plates were spun at 1500 rpm for 5 minutes and cell pellets were suspended in 50 μL FACS buffer containing 6-12 point dilutions of anti-PD-1 variants starting from concentrations of −100-200 nM antibody, dispensed using BioMek FX (Beckman Coulter). Cells were then incubated on ice for 1 hr, washed with FACS buffer and incubated for 1 hr on ice with 50 μL FACS buffer containing 2.5 μg/ml R-phycoerythrin-conjugated goat anti-Human IgG (Jackson ImmunoResearch) or AF647-conjugated goat anti-mouse IgG (Life Technologies) dispensed using BioMek FX (Beckman Coulter). Cells were then washed 2× with FACS buffer and fixed for 10 minutes in 200 μL PBS with 2% paraformaldehyde (PFA) prior to fluorescence detection. Samples were acquired using a Becton Dickinson LSRII FACS. Mean Fluorescence Intensity of PD-1 antibody binding was analyzed using FlowJo® software (Tree Star, Inc.).

[4] = target: T4, cynomolgus PD-1 (ACROBiosystems, Inc., Catalog No. PD1-H5254) (cynomolgus, UniProt B0LAJ3 25-167); experiment: SPR (Biacore), cynomolgus PD-1 as analyte
T4 construct: also called cyno PD-1
T4 sequence (B0LAJ3 entry or part of it limits assumed, form in doubt): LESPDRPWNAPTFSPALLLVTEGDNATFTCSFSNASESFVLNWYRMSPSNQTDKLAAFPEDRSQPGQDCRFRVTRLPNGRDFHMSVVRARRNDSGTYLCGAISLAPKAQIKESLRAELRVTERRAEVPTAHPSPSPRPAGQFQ

Row | Kd [1] [nM] | Kd [2] [nM] | koff [2] [s⁻¹] | kon [2] [M⁻¹ s⁻¹] | Kd [3] [nM] | Kd [4] [nM] | Binder
1 | 9.08 | – | – | – | – | – | 1353-H09 scFv-Fc (scFv, scFv-Fc with IgG1 Fc and FlagHis tag; the entry is the whole chain) scFv: MEVQLVQSGAEVKKPGASVKVSCKASGYRFPHYGISWVRQAPGQGLEWMGWISAYNGNTNYAQKLQGRVTMTTDTSTNTAYMELRSLRSDDTAVYYCARDAEYGSGSGYWGQGTLVTVSSGGGGSGGGGSGGGGSSYELTQPPSVSVSPGQTARITCSGDALPKQYAYWYQQKPGQAPVMVIYKDTERPSGIPERFSGSSSGTKVTLTISGVQAEDEADYYCQSADNSITYRVFGGGTKVTVLAAGSDQEPKKLAAGSDQ[human IgG1 Fc with changes left out here]GSGDYKDDDDKGSGHHHHHH
2 | – | 25.5 | 0.0124 | 488000 | 0.2 | – | 1353-A09 scFv-Fc (scFv, scFv-Fc (VH1-18/Vlambda3-25) with IgG1 Fc and FlagHis tag; the entry is the whole chain) scFv: MEVQLVQSGAEVKKPGASVKVSCKASGYRFTWYGISWVRQAPGQGLEWMGWISAYNGNTNYAQKLQGRVTMTTDTSTNTAYMELRSLRSDDTAVYYCARDSEYSSGSGYWGQGTLVTVSSGGGGSGGGGSGGGGSSYELTQPPSVSVSPGQTARITCSGDALTTQYAYWYQQKPGQAPVMVIYKDTERPSGIPERFSGSSSGTKVTLTISGVQAEDEADYYCQSADNSITYRVFGGGTKVTVLAAGSDQEPKKLAAGSDQ[human IgG1 Fc with changes left out here]GSGDYKDDDDKGSGHHHHHH
3 | 60.9 | 4.5 | 0.00254 | 563000 | 0.3 | 24.3 | 1353-G08 scFv-Fc (scFv, scFv-Fc with IgG1 Fc and FlagHis tag; the entry is the whole chain; also called anti-PD-1 human scFv-Fc, clone 1353-G08) scFv: MEVQLVQSGAEVKKPGASVKVSCKASGYRFTRYGISWVRQAPGQGLEWMGWVSAHNGNTNYAQKLQGRVTMTTDTSTNTAYMELRSLRSDDTAVYYCARDADYGSGSGYWGQGTLVTVSSGGGVSGGGGSGGGGSSYELTQPPSVSVSPGQTARITCSGDALPMQYGYWYQQKPGQAPVMVIYKDTERPSGIPERFSGSSSGTKVTLTISGVQAEDEADYYCQSADNSITYRVFGGGTKVTVLAAGSDQEPKKLAAGSDQ[human IgG1 Fc with changes left out here]GSGDYKDDDDKGSGHHHHHH
4 | – | 10.9 | – | 687000 | 1 | – | 1353-F09 scFv-Fc (scFv, scFv-Fc with IgG1 Fc and FlagHis tag; the entry is the whole chain) scFv: MEVQLVQSGAEVKKPGASVKVSCKASGYRFRQYGISWVRQAPGQGLEWMGWISAYNGNTNYAQKLQGRVTMTTDTSTNTAYMELRSLRSDDTAVYYCARDAEYGSGSGYWGQGTLVTVSSGGGGSGGGGSGGGGSSYELTQPPSVSVSPGQTARITCSGDALPKQYAYWYQQKPGQAPVMVLYKDTERPSGIPERFSGSSSGTKVTLTISGVQAEDEADYYCQSADNSITYRVFGGGTKVTVLAAGSDQEPKKLAAGSDQ[human IgG1 Fc with changes left out here]GSGDYKDDDDKGSGHHHHHH
5 | – | 4.76 | 0.00118 | 248000 | 0.2 | – | 1353-H08 scFv-Fc (scFv, scFv-Fc with IgG1 Fc and FlagHis tag; the entry is the whole chain) scFv: MEVQLVQSGAEVKKPGASVKVSCKASGYRFTRQGISWVRQAPGQGLEWMGWISAYNGNTKYAQKLQGRVTMTTDTSTNTAYMELRSLRSDDTAVYYCARDVDYGSGSGYWGQGTLVTVSSGGGGSGGGGSGGGGSSYELTQPPSVSVSPGQTARITCSGDALPKQYAYWYQQKPGQAPVMVIYKDTERPSGIPERFSGSSSGTKVTLTISGVQAEDEADYYCQSADNSITYRVFGGGTKVTVLAAGSDQEPKKLAAGSDQ[human IgG1 Fc with changes left out here]GSGDYKDDDDKGSGHHHHHH
6 | 62.2 | 1.9 | 0.00098 | 516000 | 0.7 | 15.5 | 1353-G10 scFv-Fc (scFv, scFv-Fc with IgG1 Fc and FlagHis tag; the entry is the whole chain; also called anti-PD-1 human scFv-Fc, clone 1353-G10) scFv: MEVQLVQSGAEVKKPGASVKVSCKASGYRFPHYGISWVRQAPGQGLEWMGWISAYNGNTNYAQKLQGRVTMTTDTSTNTAYMELRSLRSDDTAVYYCARDVDYGTGSGYWGQGTLVTVSSGGGGSGGGGSGGGGSSYELTQPPSVSVSPGQTARITCSGDALPKQYAYWYQQKPGQAPVMVIYKDTERPSGIPERFSGSSSGTKVTLTISGVQAEDEADYYCQSADNSITYRVFGGGTKVTVLAAGSDQEPKKLAAGSDQ[human IgG1 Fc with changes left out here]GSGDYKDDDDKGSGHHHHHH
7 | – | 15.2 | 0.0187 | 1.23e+06 | 0.4 | – | 1353-C07 scFv-Fc (scFv, scFv-Fc with IgG1 Fc and FlagHis tag; the entry is the whole chain) scFv: MEVQLVQSGAEVKKPGASVKVSCKASGYRFSTFGISWVRQAPGQGLEWMGWISAYNGNTNYAQKLQGRVTMTTDTSTNTAYMELRSLRSDDTAVYYCARDVDYSSGSGYWGQGTLVTVSSGGGGSGGGGSGGGGSSYELTQPPSVSVSPGQTARITCSGDALSEQYAYWYQQKPGQAPVMVIYKDTERPSGIPERFSGSSSGTKVTLTISGVQAEDEADYYCQSADNSITYRVFGGGTKVTVLAAGSDQEPKKLAAGSDQ[human IgG1 Fc with changes left out here]GSGDYKDDDDKGSGHHHHHH
8 | – | 9.52 | 0.00701 | 737000 | 0.9 | – | 1353-E07 scFv-Fc (scFv, scFv-Fc with IgG1 Fc and FlagHis tag; the entry is the whole chain) scFv: MEVQLVQSGAEVKKPGASVKVSCKASGYRFETYGISWVRQAPGQGLEWMGWISAYNGNTNYAQKLQGRVTMTTDTSTNTAYMELRSLRSDDTAVYYCARDAEYSLGSGYWGQGTLVTVSSGGGGSGGGGSGGGGSSYELTQPPSVSVSPGQTARITCSGDALPKQYAYWYQQKPGQAPVMVIYKDTERPSGIPERFSGSSSGTKVTLTISGVQAEDEADYYCQSADNSITYRVFGGGTKVTVLAAGSDQEPKKLAAGSDQ[human IgG1 Fc with changes left out here]GSGDYKDDDDKGSGHHHHHH
